# Results published in publication PMC6407677.
# Sequences of proteins named here, by UniProt entry; tags and fusion partners are left off.
# UniProt Q9GZV5: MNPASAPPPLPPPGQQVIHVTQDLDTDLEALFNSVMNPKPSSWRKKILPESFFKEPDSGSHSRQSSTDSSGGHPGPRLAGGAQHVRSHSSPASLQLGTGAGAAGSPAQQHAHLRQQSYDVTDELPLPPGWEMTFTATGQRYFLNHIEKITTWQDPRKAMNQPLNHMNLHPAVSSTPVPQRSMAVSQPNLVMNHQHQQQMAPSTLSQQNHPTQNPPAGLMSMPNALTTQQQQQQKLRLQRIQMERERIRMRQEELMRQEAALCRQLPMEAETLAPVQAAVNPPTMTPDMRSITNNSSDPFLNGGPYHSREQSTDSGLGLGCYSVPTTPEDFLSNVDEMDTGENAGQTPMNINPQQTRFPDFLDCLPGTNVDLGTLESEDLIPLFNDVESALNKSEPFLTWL
# UniProt Q15208: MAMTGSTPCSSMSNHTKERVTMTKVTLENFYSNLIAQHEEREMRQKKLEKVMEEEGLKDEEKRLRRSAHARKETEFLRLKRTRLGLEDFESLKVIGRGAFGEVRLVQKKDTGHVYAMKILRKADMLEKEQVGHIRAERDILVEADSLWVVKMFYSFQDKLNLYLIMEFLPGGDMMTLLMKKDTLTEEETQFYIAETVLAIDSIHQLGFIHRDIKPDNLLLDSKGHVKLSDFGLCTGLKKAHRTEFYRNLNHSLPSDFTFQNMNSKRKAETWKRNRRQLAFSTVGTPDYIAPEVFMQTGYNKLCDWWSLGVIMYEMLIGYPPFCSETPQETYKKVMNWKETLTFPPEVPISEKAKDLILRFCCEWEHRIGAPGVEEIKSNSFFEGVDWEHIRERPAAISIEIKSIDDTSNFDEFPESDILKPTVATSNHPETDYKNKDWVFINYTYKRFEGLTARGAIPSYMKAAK
# Results are given in words; binding and its absence hold for the method and conditions named. In cells and extracts the contact can be indirect. Some binding calls cover weakened binding; strength is not graded here. For some assays here: Tags and fused reporters may be left off the sequences shown.
# T1: GST-POPX2 (human) (UniProt P49593)
# T1 sequence: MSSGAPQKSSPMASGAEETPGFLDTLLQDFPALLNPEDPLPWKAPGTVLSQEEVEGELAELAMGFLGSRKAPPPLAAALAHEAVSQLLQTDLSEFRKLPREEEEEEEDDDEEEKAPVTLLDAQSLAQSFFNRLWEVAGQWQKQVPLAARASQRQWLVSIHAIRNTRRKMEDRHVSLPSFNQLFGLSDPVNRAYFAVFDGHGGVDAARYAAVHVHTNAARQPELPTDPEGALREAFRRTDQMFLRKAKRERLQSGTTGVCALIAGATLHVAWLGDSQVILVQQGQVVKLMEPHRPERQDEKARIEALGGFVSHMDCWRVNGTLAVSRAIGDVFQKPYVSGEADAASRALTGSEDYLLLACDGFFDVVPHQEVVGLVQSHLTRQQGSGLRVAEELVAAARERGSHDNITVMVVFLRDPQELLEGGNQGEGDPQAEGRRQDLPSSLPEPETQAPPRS
# T2: endogenous LATS1 (human (endogenous in HEK293)) (UniProt O95835)
# T2 sequence: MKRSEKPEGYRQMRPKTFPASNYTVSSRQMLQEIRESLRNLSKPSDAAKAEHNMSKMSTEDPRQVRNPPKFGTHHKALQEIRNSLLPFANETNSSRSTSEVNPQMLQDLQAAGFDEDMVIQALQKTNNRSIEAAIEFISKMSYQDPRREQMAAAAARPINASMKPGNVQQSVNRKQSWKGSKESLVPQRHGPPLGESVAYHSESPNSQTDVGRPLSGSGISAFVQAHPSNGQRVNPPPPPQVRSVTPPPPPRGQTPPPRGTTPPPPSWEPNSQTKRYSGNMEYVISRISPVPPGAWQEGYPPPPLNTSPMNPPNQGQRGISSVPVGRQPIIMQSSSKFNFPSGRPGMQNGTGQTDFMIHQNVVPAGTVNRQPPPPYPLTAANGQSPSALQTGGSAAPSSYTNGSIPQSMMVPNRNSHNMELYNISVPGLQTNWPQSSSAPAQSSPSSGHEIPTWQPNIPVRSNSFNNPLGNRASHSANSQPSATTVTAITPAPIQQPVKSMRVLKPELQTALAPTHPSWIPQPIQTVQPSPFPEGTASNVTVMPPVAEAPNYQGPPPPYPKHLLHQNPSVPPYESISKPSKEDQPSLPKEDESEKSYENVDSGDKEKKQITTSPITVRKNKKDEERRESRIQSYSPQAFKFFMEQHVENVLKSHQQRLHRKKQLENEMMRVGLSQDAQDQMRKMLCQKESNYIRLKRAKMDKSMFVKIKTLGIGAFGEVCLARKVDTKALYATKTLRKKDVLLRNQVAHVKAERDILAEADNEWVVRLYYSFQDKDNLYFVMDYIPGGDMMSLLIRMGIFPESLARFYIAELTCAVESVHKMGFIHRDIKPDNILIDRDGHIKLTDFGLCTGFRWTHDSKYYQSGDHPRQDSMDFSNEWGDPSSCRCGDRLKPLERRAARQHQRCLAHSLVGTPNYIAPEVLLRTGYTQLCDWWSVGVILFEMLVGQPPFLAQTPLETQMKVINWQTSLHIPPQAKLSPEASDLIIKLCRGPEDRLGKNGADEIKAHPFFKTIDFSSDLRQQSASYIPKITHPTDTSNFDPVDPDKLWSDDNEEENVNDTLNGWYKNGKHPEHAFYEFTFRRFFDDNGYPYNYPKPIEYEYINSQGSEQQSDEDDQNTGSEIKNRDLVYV
# T3: endogenous MST1 (human (endogenous in HEK293)) (UniProt Q13043)
# T3 sequence: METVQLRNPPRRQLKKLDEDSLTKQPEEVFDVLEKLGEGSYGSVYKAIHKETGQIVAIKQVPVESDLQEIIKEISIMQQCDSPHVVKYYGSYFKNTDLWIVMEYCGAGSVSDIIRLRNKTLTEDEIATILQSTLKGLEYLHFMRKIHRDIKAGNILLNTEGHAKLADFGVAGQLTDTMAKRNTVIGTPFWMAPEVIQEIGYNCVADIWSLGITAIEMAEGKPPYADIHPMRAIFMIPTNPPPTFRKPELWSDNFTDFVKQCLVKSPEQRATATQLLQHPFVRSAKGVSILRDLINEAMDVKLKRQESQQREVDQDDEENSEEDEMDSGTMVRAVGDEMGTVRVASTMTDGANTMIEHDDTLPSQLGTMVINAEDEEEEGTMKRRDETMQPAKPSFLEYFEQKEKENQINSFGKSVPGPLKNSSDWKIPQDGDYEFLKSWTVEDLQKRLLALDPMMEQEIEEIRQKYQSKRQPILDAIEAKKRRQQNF
# B1: endogenous POPX2 (enzyme, UniProt P49593 1-454)
# chain: T1 sequence
# Columns and labels:
# GST-POPX2 (human) = target: T1, GST-POPX2 (human); experiment: co-IP; lysates of HEK293 cells co-expressing GST-POPX2 and the Flag- or Myc-tagged partner; 1 mg lysate on glutathione sepharose beads overnight at 4°C; 25 mM Tris pH 7.5, 150 mM NaCl, 0.5% Triton-X; Western blot with anti-Flag or anti-Myc
# [1] = target: T2, endogenous LATS1 (human (endogenous in HEK293)); experiment: co-IP; endogenous proteins of HEK293 lysate; primary antibody 1:100 overnight at 4°C, Protein G magnetic beads; 25 mM Tris pH 7.5, 150 mM NaCl, 0.5% Triton-X; Western blot
# [2] = target: T3, endogenous MST1 (human (endogenous in HEK293)); experiment: as above
Molecule,binding (GST-POPX2 (human)),binding [1],binding [2]
Flag-TAZ (from UniProt Q9GZV5 1-400),no binding,–,–
Flag-YAP (from UniProt P46937-2 1-488),no binding,–,–
Flag-NDR1 (from UniProt Q15208 1-465) (enzyme),binds,–,–
B1,–,binds,binds
